Measurements reported in the RNAGym collection of RNA variant scans (doi:10.1073/pnas.2313332121).
Variants at the background level are over-represented here.

B1: TPR 5TU (parent)
chain: GGAUCUUCUCGAUCUAACAAAAAAGACAAAUCUGCCACAAAGCUUGAGAGCAUCUUCGGAUGCAGAGGCGGCAGCCUUCGGUGGCGCGAUAGCGCCAACGUUCUCAACUAUGACACGCAAAACGCGUGCUCCGUUGAAUGGAGUUUAUCAUG

Variants of: B1
Experiment: polymerase ribozyme fitness, log enrichment relative to wild type (log ratio); higher = more active; in vitro selection for triplet polymerase activity
Summary of the method: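 Fitness is a logarithmic measure of how a genotype enriched relative to the wild type, with replicate averages weighted by inverse variance. The logarithm uses base 2, and enrichment came from Illumina sequencing of input and output libraries. Those libraries were PCR-built, transcribed mutants of each subunit of a heterodimeric triplet polymerase ribozyme, passed through one triplicate in vitro selection round that included frozen incubation at −7 °C, gel excision of extended constructs and streptavidin-bead capture. Genotypes were kept only if they had ≥10 input reads and ≥1 read per output.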

Variant	polymerase ribozyme fitness (log ratio)
GGAUCUUCUCGAUCUAACAAAAAAGACAAAUCUGCCACAAAGCUUGUGAGCAUCUUCGGAUGGAGAGGCGGCAACCUUCGGUGGCGCGAUAACGCCAACGUUCUCAACUAUGACACGCAAAACGCGUGCUCCGUUGAAUGGAGUUUAUCAUG [A47U C63G G74A G92A]	≤ -4.2
GGAUCUUCUCGAUCUAACAAAAAAGACAAAUCUGCCACAAAGCUUGAAAGCCUCUUCGGAUGCAGAUGCGGCAGCCUUCGGUGGCGUGAUAGCGCCAACGUUCUCAACUAUGACACGCAAAACGCUUGCUCCGUUGAAUGGAGUUUAUCAUG [G48A A52C G67U C87U G126U]	≤ -4.2
GGAUCUUCUCGAUCUAACAAAAAAGACAAAUCUGCCACAAAGCUUGUGAGCAUCUUCGGAUGCAGAGGCGGCAGCCUUCGGUGGCGCGAUAGUGCCAACGUUCUCAAAUAUGACACGCAAAACGCGUGCUCCGUUGAAUGGAGUUUAUCAUG [A47U C93U C108A]	≤ -4.2
GGAUCUUCUCGAUCUAACAAAAAAGACAAAUCUGCCACAAAGCUUGUGAGCAUCUUCCGAUGCAGAGGCGGCAGCCUUCGGUGGCGCCAUAGCGCCAACGUUCUCAACUAUGACACGCAAAACGCGUGCUCCGUUGAAUGGAGUUUAUCAUG [A47U G58C G88C]	≤ -4.2
GGAUCUUCUCGAUCUAACAAAAAAGACAAAUCUGCCACAAAGCUUGUGAGCAUCUUCGGAUGCAGAGGCGGCAGCGUUCGGUGGCGCGAUAGCCCCAACGGUCUCAACUAUGACACGCAAAACGCGUGCUCCGUUGAAUGGAGUUUAUCAUG [A47U C76G G94C U101G]	≤ -4.2
GGAUCUUCUCGAUCUAACAAAAAAGACAAAUCUGCCACAAAGCUUGUGAGCAUCAUCGGAUGCAGAGGCGGCAGCCUUCGGUGGCGGGAUAGCGCCAACGUUCUCAACUAUGACACGCAAAACGCGUGCUCCGUUGAAUGGAGUUGCUCAUG [A47U U55A C87G U146G A147C]	≤ -4.2
GGAUCUUCUCGAUCUAACAAAAAAGACAAAUCUGCCACAAAGCUUGUGACCAUCUUCGGAUGCAGAGGCGGCAGCCUUCGGUGGCGCGAUAGCGCCAACGUUCUCAACUAUGACACGCAAAACGCGUGCUCCGUUGAAUGGGGUUGAUCAUG [A47U G50C A142G U146G]	≤ -4.2
GGAUCUUCUCGAUCUAACAAAAAAGACAAAUCUGCCACAAAGCUUGUGAGCAUCUUCGGAAGCAGAGGCGGCAGCCUUCGGUGGCGCGAUAGCGCCAACGUUCUCAACUAUGACACGCAAAACGCGUGCUCCGUUGAAUGGAGUUUAUCAUG [A47U U61A]	-1.41
GGAUCUUCUCGAUCUAACAAAAAAGACAAAUCUGCCACAAAGCUUGUGAGCAUCUUCGGAUGCAGAGGCGGCAGCCUUCGGUGUCGCGAUAGCGCCAACGUUCUCAACUAUGACACGCAAAACGCGUGCUCCGUUGAAUGGAGUUUAUCAUG [A47U G84U]	-1.78
GGAUCUUCUCGAUCUAACAAAAAAGACAAAUCUGCCACAAAGCUUGAAAGCCUCUACGGAUGCAGAGGCGGCAGCCUUCGGUAGCGCGAUAGCGCCAACGUUCUCAACUAUGACACGCAAAACGCGUGCUCCGUUGAAUGGAGUUUAUCAUG [G48A A52C U56A G83A]	≤ -4.2
GGAUCUUCUCGAUCUAACAAAAAAGACAAAUCUGCCACAAAGCUUGUGAGCAUCAUCGGAUGCAGAGGCGGCAGCCUUCGGUGGCGUGAUAGCGCCAACGUUCUCAACUAUGACACGCAAAACGCGUGCUCCGUUGAAUGGAGUUUAUCAUG [A47U U55A C87U]	-2.17
GGAUCUUCUCGAUCUAACAAAAAAGACAAAUCUGCCACAAAGCUUGUCAGCAUCUUCGGAUGCAGAGGCGGCGGCCUUCGGUGGCGCGCUAGCGCCAACGUUCUCAACUAUGACACGCAAAACGCGUGCUCCGUUAAAUGGAGUUCAUCAGG [A47U G48C A73G A89C G136A U146C U151G]	≤ -4.2
GGAUCUUCUCGAUCUAACAAAAAAGACAAAUCUGCCACAAAGCUUGUGAGCAUCUUCGUAUGCAGAGGCGGCAGCCUUCGGUGGCGCGAUAUCGCGAACGUUCGCAAUUAUGACACGCAAAACGCGUGCUCCGUUGAAUGGAGUUUAUCAUG [A47U G59U G92U C96G U104G C108U]	≤ -4.2
GGAUCUUCUCGAUCUAACAAAAAAGACAAAUCUGCCACAAAGCUUGUGAGCAUCUUCGGAUGCAGAGGCUGCAGCCUUCGGUGGCGCGAUAGCGCCAACGUUCUCAACUAUGACACGCAAAGCGCGUGCUCCGUUGAAUGGAGUUUAUCAUG [A47U G70U A122G]	-3.45
GGAUCUUCUCGAUCUAACAAAAAAGACAAAUCUGCCACAAAGCUUGUGAGCAUCUUCGGAUGCAGAGGCGGCAGCCUUCGGUGGCGUGAUUGCGCCAACGUUCUCAACUAUGACACGCAAAACGCGUGCUCCGUUGAAUGGAGCUUAUCAUG [A47U C87U A91U U144C]	≤ -4.2
GGAUCUUCUCGAUCUAACAAAAAAGACAAAUCUGCCACAAAGCUUGUGAGCAUCUUCGGAUGCAGAGGCGGCAGCCUUCGGUGGUGGGAUAGCGCCAACGUUCUCAACUAUGACACGCAAAACGCGUGCUCCGUUGAAUGGAGUUUAUCAUG [A47U C85U C87G]	≤ -4.2
GGAUCUUCUCGAUCUAACAAAAAAGACAAAUCUGCCACAAAGCUUGUGAGCAUCGUCGGAUGCAGAGACGGCAGCCUUCGGUGUCGCGAUAGCGCCAACGUUCUCAACUAUGACACGCAAAACGCGUGCUCCGUUGAAUGGAGUUUAUCAAG [A47U U55G G68A G84U U151A]	≤ -4.2
GGAUCUUCUCGAUCUAACAAAAAAGACAAAUCUGCCACAAAGCUUGUGAGCAUCUUCGGAUGCAGAGGCGGCAGCCUUCGGUCGCGCGAUAGCGCCAACGUUCUCAACUAUGACACGCAAAACGCGUGCUCCGUUGAAUGGGGUUUAUCAUG [A47U G83C A142G]	-2.42
GGAUCUUCUCGAUCUAACAAAAAAGACAAAUCUGCCACAAAGCUUGUGAACAUCUUCGGAUGCAGAGGCGGCAGUCUUCGGUGGCGCGAUAGCGCCAACGUUCUCAACUGUGGCACGCAAAACGCGUGCUCCGUUGAAUGGAGUUUAUCAUG [A47U G50A C75U A110G A113G]	≤ -4.2
